The other results are listed elsewhere or left out.

The subject of this assay is PfSIP2 AP2 domain 1 (GST-tagged). Nature of the assay: gcPBM binding intensity (ln(normalized median fluorescence intensity)); higher = stronger DNA binding. In short, it runs like this:
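Plasmodium falciparum DNA-binding domains carrying a GST tag were expressed in E. coli and applied for 1 h, at about 25 μg on average, to an Agilent 4 × 180k array. The array held primer-extended double-stranded 36-bp intergenic genomic probes together with negative controls, and binding took place in 1× PBS with 1% milk, 0.2 mg/ml BSA, 0.5% salmon testes DNA and 0.03% Triton X-100. An Alexa488 anti-GST antibody detected bound protein, and the array was scanned at 488 nm. Binding intensity is taken as the highest Masliner-normalised natural-log median intensity across replicate spots of either probe orientation.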
Consider “TTTTTTTTTAAGTTTGCACACATGGAAGACAAAAAT [CACACA_site2505]”, for which the “gcPBM binding intensity (ln)” value was found to be 7.96.
As for TAATACATAAATAATGTGCACATGGAAATATATCTT, the “gcPBM binding intensity (ln)” value worked out at 8.6.
As for “TATTTTATATACAGTGGTACTTTTTTTTTTTTTTTT [XGTACX_site2475]”, the figure is 7.56.
Turning to “AAAAAAAAAAAAAAATCACACACAATATGAATTTAT [CACACA_site8100]”, the “gcPBM binding intensity (ln)” value came to 7.07.
On to “ACATATATATTATAAGCATGCATGAGAAAATTTTTA [TGCATGCA_site1054]”, for which the “gcPBM binding intensity (ln)” value was determined as 7.09.
As for “AATTGCTTCAAAATTAAACACACACTAATAAAAAAA [CACACA_site8855]”, the figure is 7.11; as for “AAAAAAAAAAAAAAAACACACATTTGAAGAAAAAAA [CACACA_site7389]”, 7.56.
For “AATAATAATAGAAACACACACACATTTTTAAGAATA [CACACA_site6692]”, the “gcPBM binding intensity (ln)” value stood at 6.74.
Consider “TGAAAAAAAAAATGCACACGCATACAGATAATATGT [CACACA_site4526]”, for which the “gcPBM binding intensity (ln)” value was found to be 7.12.
With “ATTATTGCAATTTAATGTACATAATACAAATTTGCC [XGTACX_site2729]”, the “gcPBM binding intensity (ln)” value came to 7.24.
Take “AATGAATAAATAAACACACACACATATATATATATG [CACACA_site18]”: the “gcPBM binding intensity (ln)” value was 7.29.
As for “TATATTCAAAAAAATTCATTTCTGATTTTTTTTTTT [CACACA_negctrl_site1085]”, the “gcPBM binding intensity (ln)” value came out at 6.52.
As to “TATACGTATACCTATACACACATATATATATATATA [CACACA_site1273]”, the “gcPBM binding intensity (ln)” value amounted to 9.17.
On to “GATGAAATATCATTACGTACACAATAGTTTGTATTT [XGTACX_site5143]”, for which the “gcPBM binding intensity (ln)” value came out at 7.01.
Consider “TTATTAATTATATATAGTACACATTTCACAGATGGG [XGTACX_site2349]”, for which the “gcPBM binding intensity (ln)” value was 7.23.
In the case of “TGAACACATACATACACACACACAAAAAAAAAAAAA [CACACA_site392]”, the “gcPBM binding intensity (ln)” value came to 7.12.
With “AAAATTATGCAGTAGGTGCAATACCCTCGGCTTTTT [GTGCAC_site9556]”, the “gcPBM binding intensity (ln)” value is 9.06.
For “TTTTTTTTTTTTTTTGGTACACATTTTGGTTAATGG [XGTACX_site5109]”, the “gcPBM binding intensity (ln)” value is 6.88.
The same measure for “ATAAAAAGGTTTAAAAAAAAAAAAAAAAAAAAAAAA [CACACA_negctrl_site412]”: 6.82; for “AATATCTGAAAATAAAGTACAAACATATTATAAATA [XGTACX_site5738]”: 6.82; for “TATTTCAAATGTTATGTGCACATATTAATCCTACTT [GTGCAC_site9738]”: 8.13.
For the sequence “AATAATAATTTAAAAAGTACATTCTAATAAACACGT [XGTACX_site1444]”, the “gcPBM binding intensity (ln)” value was found to be 7.39.
In the case of “TACTTATTTGATTGGGTGCATATATATAGTATGTAT [GTGCAC_site9845]”, the “gcPBM binding intensity (ln)” value was 10.6.
On to “TTATTTATGAGGGTGACACACAAAAGAGTGTTAAGA [CACACA_site277]”, for which the “gcPBM binding intensity (ln)” value came to 6.75.
The same measure for “AAAAAAAAACACGCATGTACATAAAAATAATCATAC [XGTACX_site1086]”: 7.05.
As for “AAATAAAATAAAATAAAATAAAATAAAATAAAATAA [XGTACX_negctrl_site142]”, the “gcPBM binding intensity (ln)” value worked out at 7.06.
As for “TTCTTTGTAGTATATTAACACACAACTGTTTATAAT [CACACA_site9305]”, the figure is 7.27.
In the case of “CAAATCAAAATTAATTAACACACAATTTTAATATTC [CACACA_site8641]”, the “gcPBM binding intensity (ln)” value amounted to 6.85.
With “TATAATGTTGATAATAGTACGTATGAGTTCAAAAAA [XGTACX_site988]”, the “gcPBM binding intensity (ln)” value was 7.2.
Regarding “AAATAGAGAAATACAAGTACATACTAAACCAATCTA [XGTACX_site2780]”, the “gcPBM binding intensity (ln)” value came to 6.78.
“AAAGGATATAATACCATACACACATTTATAAAATAA [CACACA_site1931]”: the “gcPBM binding intensity (ln)” value stood at 6.9.
Regarding “ACTTTTATTCGCTTACGTACATATATTATATATTAT [XGTACX_site4459]”, the “gcPBM binding intensity (ln)” value was 7.84.
As for “AAAAGAAAATATATGTGTACTAAAATATATATATAT [XGTACX_site3817]”, the “gcPBM binding intensity (ln)” value is 9.22.
For the sequence GTTTATTAAACATTAGTGCAATTTTAATCCATTCTA, the “gcPBM binding intensity (ln)” value was 7.56.
As for “TTTAAAGTAATAAAGTGTACAAAAATAAATTCAGCT [XGTACX_site8651]”, the figure is 7.24; as for “TACCTACACTTTTGGAGTACAATTAAAAAAAAAAAA [XGTACX_site1403]”, 7.42; as for “TATATATATATATAATGTACAGAAAAAAAAAAAAAA [XGTACX_site6141]”, 8.91.
For the sequence “TTAATCCTTTTTAAAAGTACACATATATATATATAT [XGTACX_site962]”, the “gcPBM binding intensity (ln)” value came to 9.53.
As to “AAATCATGTTGAAGGGGTACAAAATATGTAATGTTG [XGTACX_site6222]”, the “gcPBM binding intensity (ln)” value came out at 7.06.
For the sequence “ATATTATATATTTGATGTACATTGAATGAGAGAGAA [XGTACX_site3324]”, the “gcPBM binding intensity (ln)” value stood at 7.75.
“ATAATAAATGATAGCACACATATGTACATAAATACA [CACACA_site4634]”: the “gcPBM binding intensity (ln)” value worked out at 7.36.
As for “TATCTTAACAATTAGTGTACAGATAACCAATTAAAA [XGTACX_site3184]”, the “gcPBM binding intensity (ln)” value was 6.99.
In the case of “AACATATAAAAATGTGCACACACACCCATATATATA [CACACA_site1525]”, the “gcPBM binding intensity (ln)” value was 9.1.
“CTTTGTGGTATAGATACACACTATATTAAGATGAAC [CACACA_site5215]”: the “gcPBM binding intensity (ln)” value is 6.86.

Values taken from the supplement of paper PMC11417369.
